Results: the BET-seq Pho4 binding data (Le et al. 2018)
Some of the results follow. Values were computed here from the reads of four pooled replicates and scatter widely.

These sequences were tested against T1, Pho4 (S. cerevisiae) (UniProt P07270) (assay: relative binding free energy (BET-seq); higher = weaker binding). Conditions: reference: library average.
T1 sequence: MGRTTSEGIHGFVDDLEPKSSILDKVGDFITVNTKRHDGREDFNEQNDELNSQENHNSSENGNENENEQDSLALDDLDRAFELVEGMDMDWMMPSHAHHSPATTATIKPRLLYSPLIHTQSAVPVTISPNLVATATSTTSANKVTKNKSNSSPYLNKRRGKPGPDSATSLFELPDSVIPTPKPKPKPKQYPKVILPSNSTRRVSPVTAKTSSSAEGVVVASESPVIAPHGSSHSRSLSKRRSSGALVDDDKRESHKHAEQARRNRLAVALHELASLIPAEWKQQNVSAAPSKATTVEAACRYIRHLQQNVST

Row | Sequence | relative binding free energy
1 | AGGGCCACGTGGGGGC | -0.28 kcal/mol
2 | TAGTTCACGTGGGGTC | 0.09 kcal/mol
3 | TCGGTCACGTGAGGTA | 0.15 kcal/mol
4 | CGCGGCACGTGTCTGG | 0.03 kcal/mol
5 | TGGAGCACGTGCCTGG | -0.2 kcal/mol
6 | TAGAACACGTGTGTTA | -0.05 kcal/mol
7 | TACGGCACGTGCCGGG | 0 kcal/mol
8 | AGGATCACGTGTCAGG | 0.2 kcal/mol
9 | TCAATCACGTGATTGT | 0.13 kcal/mol
10 | ATATGCACGTGGATTA | 0 kcal/mol
11 | AGCAACACGTGTGGTG | 0.05 kcal/mol
12 | TCGGGCACGTGGTTCA | -0.16 kcal/mol
13 | AATGTCACGTGTTTCT | 0.1 kcal/mol
14 | ACGGGCACGTGGTGAG | -0.23 kcal/mol
15 | TTGATCACGTGGGGAC | -0.03 kcal/mol
16 | CGGTTCACGTGATAGT | 0.29 kcal/mol
17 | TGACGCACGTGTTTTA | -0.06 kcal/mol
18 | GTATGCACGTGTACTG | 0.03 kcal/mol
19 | CGATGCACGTGTTGTT | 0 kcal/mol
20 | TTGTTCACGTGTAGAC | 0.28 kcal/mol
21 | GCGTTCACGTGGATGG | 0.2 kcal/mol
22 | AGTTACACGTGTAGTT | 0.14 kcal/mol
23 | AAATGCACGTGTGATG | 0.12 kcal/mol
24 | GTAGGCACGTGTGTGA | 0.01 kcal/mol
25 | GCTATCACGTGTTTTA | 0.22 kcal/mol

Row | Sequence | relative binding free energy
26 | TCGTTCACGTGATGGG | 0.36 kcal/mol
27 | GTTGACACGTGATGTT | 0.17 kcal/mol
28 | AGAATCACGTGGTAGT | 0.26 kcal/mol
29 | CGATGCACGTGTTTTA | 0.03 kcal/mol
30 | GGGGTCACGTGGCGAG | 0.01 kcal/mol
31 | TGTAGCACGTGTAAAG | 0.06 kcal/mol
32 | TGTAACACGTGGAGTT | -0.01 kcal/mol
33 | GGTGGCACGTGGGCAG | -0.1 kcal/mol
34 | CGTGGCACGTGAATTT | 0.15 kcal/mol
35 | TGGGTCACGTGAGCTC | 0.26 kcal/mol
36 | ATTGTCACGTGGCTTG | 0.13 kcal/mol
37 | TATGCCACGTGAGGGT | 0.17 kcal/mol
38 | GGTATCACGTGTTTTC | 0.17 kcal/mol
39 | GTAGCCACGTGGGTAG | -0.12 kcal/mol
40 | CTTGGCACGTGCTTGA | -0.08 kcal/mol
41 | ATTGTCACGTGTTTCG | 0.03 kcal/mol
42 | CTGTTCACGTGGCTGT | 0.09 kcal/mol
43 | TGAGGCACGTGGGGCC | -0.08 kcal/mol
44 | GGCGTCACGTGGGAGC | 0.09 kcal/mol
45 | GTGAACACGTGGGTGC | -0.04 kcal/mol
46 | TGCTTCACGTGTAGGG | 0.16 kcal/mol
47 | CAAGTCACGTGAGGGG | 0.23 kcal/mol
48 | AGGTTCACGTGACATT | 0.4 kcal/mol
49 | TGGTGCACGTGGTTGT | 0.02 kcal/mol
50 | AATGGCACGTGGCTTG | -0.16 kcal/mol

Row | Sequence | relative binding free energy
51 | TTTAGCACGTGTGATC | -0.04 kcal/mol
52 | TAGTTCACGTGAAGGC | 0.47 kcal/mol
53 | TTTGGCACGTGACATT | 0.01 kcal/mol
54 | AAAGACACGTGTGAGG | 0.12 kcal/mol
55 | GGAGACACGTGTGTAT | -0.02 kcal/mol
56 | AGGGTCACGTGGGAGA | 0.05 kcal/mol
57 | GGGGTCACGTGGTACA | 0.04 kcal/mol
58 | AGTGTCACGTGGTAGG | -0.02 kcal/mol
59 | CAGGGCACGTGGGGTT | -0.2 kcal/mol
60 | AGATTCACGTGTAGCG | 0.3 kcal/mol
61 | TATCACACGTGGTCGG | 0.11 kcal/mol
62 | TGTTTCACGTGATCTT | 0.32 kcal/mol
63 | CGAAACACGTGGGGCG | 0.02 kcal/mol
64 | GGTACCACGTGTTTGT | 0 kcal/mol
65 | TTTGCCACGTGTGAAT | 0.01 kcal/mol
66 | ATGTTCACGTGGGCGG | 0.17 kcal/mol
67 | AGGTGCACGTGACGAG | 0.14 kcal/mol
68 | AAATACACGTGAGTTT | 0.25 kcal/mol
69 | GAGGGCACGTGGCGCG | -0.15 kcal/mol
70 | AGTTCCACGTGTATTA | 0.08 kcal/mol
71 | GTTGTCACGTGGGGAA | 0.12 kcal/mol
72 | GGGTACACGTGATCGT | 0.23 kcal/mol
73 | AGGGACACGTGTGTAT | 0.08 kcal/mol
74 | TGAAGCACGTGTGTTT | 0.03 kcal/mol
75 | TTTGTCACGTGGAAGG | 0.13 kcal/mol

Row | Sequence | relative binding free energy
76 | GGGGTCACGTGTCCGT | 0.12 kcal/mol
77 | GGTTACACGTGGCTGG | 0.08 kcal/mol
78 | GCGATCACGTGTGGTC | 0.46 kcal/mol
79 | TACGTCACGTGGCGTG | -0.04 kcal/mol
80 | GTGCGCACGTGTGAGA | 0.13 kcal/mol
81 | CTGTGCACGTGTGATT | -0.13 kcal/mol
82 | TAGCACACGTGTGTGG | 0.02 kcal/mol
83 | GTCGTCACGTGTGTTC | 0.22 kcal/mol
84 | AAGAGCACGTGGGCGT | -0.34 kcal/mol
85 | GATTCCACGTGTAGGT | 0.03 kcal/mol
86 | GTAAGCACGTGTGTGA | 0.01 kcal/mol
87 | GGTACCACGTGGATTT | 0.07 kcal/mol
88 | TTAATCACGTGATGAA | 0.43 kcal/mol
89 | GGGTACACGTGGAGCG | 0.04 kcal/mol
90 | TGTAGCACGTGGTCGC | -0.23 kcal/mol
91 | CGTTTCACGTGGTTTT | 0.27 kcal/mol
92 | ATAGACACGTGTGTTG | -0.14 kcal/mol
93 | GATTGCACGTGTCTGG | 0.03 kcal/mol
94 | TAATTCACGTGTAATA | 0.31 kcal/mol
95 | TACTGCACGTGTAGTT | 0.05 kcal/mol
96 | TGCATCACGTGTGGGA | 0.03 kcal/mol
97 | TGGTACACGTGTGGCC | 0.27 kcal/mol
98 | ATGCGCACGTGGGTAT | -0.3 kcal/mol
99 | TTTTGCACGTGATGGC | 0.14 kcal/mol
100 | ATGGTCACGTGGGGAT | -0.12 kcal/mol

Row | Sequence | relative binding free energy
101 | AATAGCACGTGTATTG | -0.05 kcal/mol
102 | ATAGGCACGTGTTCAG | -0.13 kcal/mol
103 | AGAGTCACGTGGAATT | 0.28 kcal/mol
104 | TCATTCACGTGAATAG | 0.5 kcal/mol
105 | CGTCGCACGTGTGTTG | 0.04 kcal/mol
106 | ATATTCACGTGTAGTG | 0.1 kcal/mol
107 | AAGATCACGTGGTAGT | 0.13 kcal/mol
108 | GTTATCACGTGAGTTT | 0.29 kcal/mol
109 | GCGTTCACGTGGGGGG | 0.05 kcal/mol
110 | TTGAGCACGTGATTAG | 0.03 kcal/mol
111 | TTGTGCACGTGATGAG | 0.18 kcal/mol
112 | GGGGACACGTGCTCGG | -0.04 kcal/mol
113 | CCTTTCACGTGTTGTG | 0.2 kcal/mol
114 | CTTTTCACGTGAATGT | 0.48 kcal/mol
115 | AAGGTCACGTGGGCTT | -0.1 kcal/mol
116 | TGGGACACGTGTGGTG | 0.11 kcal/mol
117 | ATTAACACGTGTTGGC | 0.02 kcal/mol
118 | TAGGACACGTGGAAGG | 0.23 kcal/mol
119 | ATGGCCACGTGCTGGG | -0.21 kcal/mol
120 | GGTTGCACGTGTGCGA | 0.06 kcal/mol
121 | GAGGGCACGTGCTGCT | -0.08 kcal/mol
122 | AGAGACACGTGTTAGT | 0.03 kcal/mol
123 | GTTGTCACGTGAATCG | 0.26 kcal/mol
124 | AATGGCACGTGTAAGG | -0.06 kcal/mol
125 | GTGACCACGTGGTGTG | -0.07 kcal/mol

Row | Sequence | relative binding free energy
126 | GATGGCACGTGAAGGA | 0.24 kcal/mol
127 | GAGTTCACGTGGCGGA | 0.43 kcal/mol
128 | GTGGTCACGTGACGAG | 0.26 kcal/mol
129 | TAATGCACGTGGGGCG | -0.17 kcal/mol
130 | CTGTCCACGTGAGGGT | 0.23 kcal/mol
131 | TGTCACACGTGGAGGA | 0.05 kcal/mol
132 | ATTATCACGTGTGAAT | 0.24 kcal/mol
133 | TAAAACACGTGTGTGG | 0.01 kcal/mol
134 | TGTGTCACGTGACAGG | 0.12 kcal/mol
135 | GATTTCACGTGGAGAG | 0.37 kcal/mol
136 | GTCGGCACGTGTGTGT | 0.05 kcal/mol
137 | GGCATCACGTGAGCGG | 0.3 kcal/mol
138 | GAGGGCACGTGGCGTA | -0.18 kcal/mol
139 | AAAGGCACGTGTCGTA | -0.11 kcal/mol
140 | ATGTGCACGTGATTGG | 0.07 kcal/mol
141 | AGTGTCACGTGGGTCT | -0.03 kcal/mol
142 | TAGGACACGTGTTGGC | 0.05 kcal/mol
143 | GGGTCCACGTGCGTGG | -0.02 kcal/mol
144 | GAAGGCACGTGTGCTG | -0.15 kcal/mol
145 | TGTGGCACGTGTGTGC | -0.07 kcal/mol
146 | CATCTCACGTGGGTTG | 0.12 kcal/mol
